Here are results for 88 compounds from publication PMC4336329 (PLoS ONE, 2015).

Out of some 310,000 compounds screened, about 14,000 (4.5%) showed an effect of 50% or more. Effects have a minus sign here. This is one part of the list.
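Further: peak tail current of the secondary pulse compared with the same well before compound.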

Sequence of human ether-à-go-go-related gene (hERG) potassium channel (Q12809 whole entry, looked up): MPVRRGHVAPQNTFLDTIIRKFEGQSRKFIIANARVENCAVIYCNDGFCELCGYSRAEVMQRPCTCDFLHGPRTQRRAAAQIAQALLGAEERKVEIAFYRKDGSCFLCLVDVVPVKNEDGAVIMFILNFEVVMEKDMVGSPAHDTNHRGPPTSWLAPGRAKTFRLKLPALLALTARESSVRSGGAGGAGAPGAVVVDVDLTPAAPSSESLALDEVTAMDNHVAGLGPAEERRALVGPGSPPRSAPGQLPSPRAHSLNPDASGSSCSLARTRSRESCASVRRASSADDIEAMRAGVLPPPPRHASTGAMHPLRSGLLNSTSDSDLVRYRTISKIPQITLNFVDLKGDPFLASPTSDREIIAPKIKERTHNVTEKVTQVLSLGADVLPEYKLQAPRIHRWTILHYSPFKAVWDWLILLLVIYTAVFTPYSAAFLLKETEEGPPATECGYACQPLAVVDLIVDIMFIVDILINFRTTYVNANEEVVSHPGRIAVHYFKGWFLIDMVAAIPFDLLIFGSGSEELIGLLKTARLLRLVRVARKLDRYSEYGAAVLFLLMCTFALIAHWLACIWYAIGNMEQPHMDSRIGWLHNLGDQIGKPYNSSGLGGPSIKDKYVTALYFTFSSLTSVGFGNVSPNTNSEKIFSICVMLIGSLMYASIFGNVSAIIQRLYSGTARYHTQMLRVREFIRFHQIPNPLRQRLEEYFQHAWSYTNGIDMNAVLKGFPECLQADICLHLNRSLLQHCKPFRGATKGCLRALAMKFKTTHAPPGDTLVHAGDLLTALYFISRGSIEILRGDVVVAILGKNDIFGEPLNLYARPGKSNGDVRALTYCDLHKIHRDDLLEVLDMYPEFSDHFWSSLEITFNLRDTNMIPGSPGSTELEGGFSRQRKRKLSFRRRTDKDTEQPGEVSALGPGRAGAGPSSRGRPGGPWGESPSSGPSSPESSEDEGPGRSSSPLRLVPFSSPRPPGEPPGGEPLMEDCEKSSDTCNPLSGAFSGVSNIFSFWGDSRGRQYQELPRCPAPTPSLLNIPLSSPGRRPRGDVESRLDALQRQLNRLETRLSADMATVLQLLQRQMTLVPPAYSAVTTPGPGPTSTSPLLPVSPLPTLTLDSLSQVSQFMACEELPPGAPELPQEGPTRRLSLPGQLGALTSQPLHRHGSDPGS

This assay has as its target human ether-à-go-go-related gene (hERG) potassium channel (human, UniProt Q12809). In words: primary screen, population patch clamp on CHO cells stably expressing hERG.
As for `O=C(OC1CCS(=O)(=O)c2sccc21)c1ccccc1` (stereo not shown), the “hERG current change (%, negative = inhibition) at 10uM” value is listed as -7.52%.
As to `Cc1cc(C)cc(NS(=O)(=O)c2ccc(NC(=O)C3CCCCC3C(=O)O)cc2)c1` (stereo not shown), the “hERG current change (%, negative = inhibition) at 10uM” value came to 2.18%.
As for `Cn1ccnc1SCc1ccc(Cl)cc1Cl`, the “hERG current change (%, negative = inhibition) at 10uM” value was 2.42%.
The same measure for `O=C(Cn1cnc2cc([N+](=O)[O-])ccc2c1=O)Nc1ccccc1Cl`: -1.06%.
The same measure for `O=C1c2ccccc2C(=O)N1C1CCCCC1`: 29.8%; for `O=S(=O)(c1ccc(Oc2ccc(-c3nnco3)cc2)nc1)N1CCC(Cc2ccccc2)CC1`: 0.174%; for `O=C(O)c1ccc(S(=O)(=O)c2ccc3c(c2)C(=O)N(c2ccc(O)cc2)C3=O)cc1`: 11.3%.
The same measure for `O=C(CN1CCOCC1)N/N=C/c1c(O)ccc2ccccc12`: 3.49%; for `O=C1NC(=S)N/C1=C\c1ccc(Oc2ccc(C(F)(F)F)cc2[N+](=O)[O-])c(Cl)c1`: 12.9%.
Regarding `CCN(CC)S(=O)(=O)c1ccc(S(=O)(=O)N2CCCC2)cc1`, the “hERG current change (%, negative = inhibition) at 10uM” value came to 1.61%.
As for `CCN(CC)C(=O)Cn1c(=O)c2ccccc2n2c(=S)sc(-c3cccc(C)c3)c12`, the “hERG current change (%, negative = inhibition) at 10uM” value is on record as 19.4%.
In the case of `CCOC(=O)c1ccc(S(=O)(=O)N2CCN(C(=O)c3cc(=O)c4ccccc4o3)CC2)cc1` it was -38.2%; in that of `O=C1C2C3C=CC(C3)C2C(=O)N1c1ccncc1` (stereo not shown), 4.4%; in that of `CCc1ccc(NC(=O)c2c(C(=O)Nc3ccccc3)sc3nc(C)cc(=O)n23)cc1`, 16.4%.
On to `COc1cccc(C2NC(=O)c3ccccc3O2)c1OCc1ccccc1F` (stereo not shown), for which the “hERG current change (%, negative = inhibition) at 10uM” value is on record as 2.09%.
`CC(=O)Nc1ccc(NC(=O)C(C)OC(=O)C2CCN(S(=O)(=O)c3cccs3)CC2)cc1` (stereo not shown): the “hERG current change (%, negative = inhibition) at 10uM” value is listed as -2.1%.
For `CCCCN(C(=O)C1=COCCO1)c1c(N)n(CCC)c(=O)[nH]c1=O`, the “hERG current change (%, negative = inhibition) at 10uM” value was determined as 12.1%.
Take `COc1cccc(NC(=O)c2ccc3c(c2)CCN3S(C)(=O)=O)c1`: the “hERG current change (%, negative = inhibition) at 10uM” value amounted to 3.4%.
In the case of `O=C(Nc1ccnn1C1CCN(C/C=C/c2ccccc2)CC1)c1ccccc1Cl` it was -83.8%; in that of `Cc1ccc(NC(=O)CCS(=O)(=O)c2cccc3nonc23)c(Cl)c1`, 7.04%; in that of `Cc1ccc(NC(=O)Cn2ccsc2=N)cc1S(=O)(=O)N(C)C.Cl`, -13.4%.
In the case of `CC(OC(=O)c1ccccc1NCCO)C(=O)Nc1ccc(S(=O)(=O)N2CCOCC2)cc1` (stereo not shown) it was 5.98%; in that of `C=C(C)c1cccc(C(C)(C)NC(=O)N2CCC(C(N)=O)CC2)c1`, 24.8%.
The same measure for `CCN(C(=O)c1ccco1)c1nc(-c2ccc(OC)cc2)cs1`: 8.13%; for `CCCS(=O)(=O)c1c(S(=O)(=O)CCC)c2c(N)cccn2c1C(=O)c1ccc(F)cc1`: -7.47%.
As for `CCOc1ccc(C(=O)/C=C/c2ccc(SC)cc2)cc1`, the “hERG current change (%, negative = inhibition) at 10uM” value is -4.39%.
For the compound `O=C(O)CCCN1C(=O)C2C3CC(C2C1=O)C1C(c2ccccc2)c2sc(=O)[nH]c2SC31` (stereo not shown), the “hERG current change (%, negative = inhibition) at 10uM” value came to 7.77%.
In the case of `COc1nc(C)nc(C)c1Oc1ccc(Cl)cc1Cl` it was 10.2%.
In the case of `CC(=O)Nc1cccc(C(=O)/C=C/c2ccc(F)cc2)c1` it was -31.1%.
The same measure for `COC(=O)CSc1nnc(CNC(=O)c2cccc(C)c2)n1-c1ccccc1OC`: 10.8%; for `COc1ccc(C)cc1S(=O)(=O)NCC(c1ccc2c(c1)OCO2)N1CCOCC1` (stereo not shown): -13.6%.
As for `O=C(/C=C/c1ccc2c(c1)OCO2)Nc1nc2ccccc2s1`, the “hERG current change (%, negative = inhibition) at 10uM” value is listed as -5.67%.
The same measure for `CC(C)Sc1nc2c(c(=O)n1C)SC(C)C2` (stereo not shown): -15.8%; for `Cc1ccc(C)c(NC(=O)c2ccc3ccccc3n2)c1`: -8.34%.
As to `Cc1ccn2c(=O)nc(SCC(=O)N3CCCC3)nc2c1`, the “hERG current change (%, negative = inhibition) at 10uM” value is recorded as 1.53%.
In the case of `CCC(C)(C)C1CCc2c(sc(N)c2C(N)=O)C1` (stereo not shown), the “hERG current change (%, negative = inhibition) at 10uM” value was -40.7%.
On to `CCC1(c2ccc(F)cc2)NC(=O)N(CC(=O)Nc2cccc(S(=O)(=O)N3CCCCC3)c2)C1=O` (stereo not shown), for which the “hERG current change (%, negative = inhibition) at 10uM” value worked out at 7.13%.
As for `CNC(=S)NNC(=O)c1cccs1`, the “hERG current change (%, negative = inhibition) at 10uM” value stood at 7.92%.
Regarding `CC(O)c1n(C)c(Cl)c[n+]1C.[I-]` (stereo not shown), the “hERG current change (%, negative = inhibition) at 10uM” value worked out at 4.19%.
In the case of `O=C(CN1C(=O)NC(c2ccccc2)(c2ccccc2)C1=O)NC1CCS(=O)(=O)C1` (stereo not shown) it was 5.23%; in that of `COCCN(C(=O)COC(=O)CCOc1ccccc1C)c1c(N)n(Cc2ccccc2)c(=O)[nH]c1=O`, 2.58%; in that of `CSc1nc(N)nc(SCC(=O)Nc2cccc(F)c2)c1C#N`, 10.8%.
In the case of `Oc1c(I)cc(Cl)c2cccnc12` it was 16.6%; in that of `Cc1c(/C=N\NC(=O)c2c[nH]c3ccccc23)cnn1C`, 7.42%.
With `COc1cc(-c2cc(C(=O)Nc3nc4ccccc4s3)c3ccccc3n2)cc(OC)c1OC`, the “hERG current change (%, negative = inhibition) at 10uM” value is listed as 35.9%.
In the case of `CCOc1ccc(NC(c2ccccc2)P(=O)(OC)OC)cc1` (stereo not shown) it was 8.49%.
In the case of `COc1ccccc1OCCNC(=O)c1cc(F)c(F)cc1Cl` it was -2.68%; in that of `COC(=O)CNC(=O)C(NC(=O)c1ccc(Cl)cc1)C(C)C` (stereo not shown), 11.7%.
For the compound `NC(=O)COc1ccc(-n2cnnn2)cc1`, the “hERG current change (%, negative = inhibition) at 10uM” value is reported as 32.4%.
The same measure for `Cc1ccc(NC(=S)c2ccncc2)cc1`: 4.34%.
For `COc1ccc(Cl)cc1NC(=O)C/C(C)=N/NC(=O)c1ccccc1[N+](=O)[O-]`, the “hERG current change (%, negative = inhibition) at 10uM” value is -2.05%.
The same measure for `COC(=O)C1C(=O)OC(C)(C)C1C(C)C(=O)c1ccc(C)cc1C` (stereo not shown): 2.5%; for `O=c1cc(CN2CCN(c3ccccc3)CC2)c2c(ccc3ccccc32)o1`: -34%; for `COc1ccc(CNC(=O)C(=O)NCC(c2ccco2)N2CCOCC2)cc1` (stereo not shown): 0.899%.
The same measure for `Cc1cccc(C(=O)c2c(N)sc3c2CCC(C)C3)c1` (stereo not shown): 2.78%; for `CN(N)c1ccc2c(C(F)(F)F)cc(C(F)(F)F)nc2n1`: 12.8%; for `COCc1ccc([C@@H]2C[C@H]3CN(Cc4cccc(Cl)c4)C(=O)[C@]34CCCN24)o1`: -31%.
As for `COc1ccc(C(=O)NCC(=O)OCc2nc(N)nc(Nc3ccccc3C)n2)cc1`, the “hERG current change (%, negative = inhibition) at 10uM” value is -40.1%.
In the case of `CCCN1CCN(CCCNC(=O)c2ccc(CS(=O)c3ccc(OC)cc3)o2)CC1` (stereo not shown) it was 6.98%; in that of `COc1ccc(CC2(CO)CCN(Cc3ccc(OC(F)(F)F)cc3)CC2)cc1`, -75.1%.
In the case of `COc1cccc(CNC(=O)CN2C(=O)CSc3ccc(S(=O)(=O)N4CCCCC4)cc32)c1`, the “hERG current change (%, negative = inhibition) at 10uM” value is given as -27.8%.
In the case of `Cc1cccn2c(=O)c3cc(C(=O)NCCN4CCOCC4)c(=N)n(Cc4ccc(F)cc4)c3nc12`, the “hERG current change (%, negative = inhibition) at 10uM” value is -72.9%.
In the case of `CC1=CC(=C(C#N)c2nc3ccccc3s2)C=C(C)N1c1ccc(F)cc1F`, the “hERG current change (%, negative = inhibition) at 10uM” value is on record as 13.3%.
As for `CC(=O)c1c(C)[nH]c(C(=O)N2CCN(c3ncccn3)CC2)c1C`, the “hERG current change (%, negative = inhibition) at 10uM” value was 2.83%.
The same measure for `CC(O)CCC(=O)NNC1CC(=O)N(c2ccccc2)C1=O` (stereo not shown): 10.1%; for `Cc1ccccc1C(=O)NCCCc1ccccc1`: 12.5%.
In the case of `OCCNc1nc(Nc2ccccc2C(F)(F)F)nc(N2CCCC2)n1`, the “hERG current change (%, negative = inhibition) at 10uM” value was -18.7%.
`O=C(Nc1nccs1)c1cccc(NC(=O)c2ccco2)c1`: the “hERG current change (%, negative = inhibition) at 10uM” value was -7.4%.
The same measure for `Cc1ccc(NC(=O)c2cc(NC(=O)C3CC=CCC3C(=O)O)ccc2N2CCOCC2)cc1Cl` (stereo not shown): 0.444%.
The same measure for `O=[N+]([O-])c1ccc(N/N=C/c2ccccc2)cc1`: 10.1%; for `CCN1C(=O)CC(N2CCN(c3ccc(Cl)cc3)CC2)C1=O` (stereo not shown): -14%.
On to `O=C(CN1C(=O)COc2ccccc21)N(Cc1cccnc1)Cc1cccc(F)c1`, for which the “hERG current change (%, negative = inhibition) at 10uM” value is listed as -33.8%.
Turning to `Cc1cccnc1NC(=O)CCc1nnc2ccc(N3CCC4(CC3)OCCO4)nn12`, the “hERG current change (%, negative = inhibition) at 10uM” value came out at 15.3%.
As for `CNCC(O)C(O)C(O)C(O)CO` (stereo not shown), the “hERG current change (%, negative = inhibition) at 10uM” value is reported as -0.427%.
Consider `CCCC(=O)NC(c1cccs1)c1cc([N+](=O)[O-])c2cccnc2c1O` (stereo not shown), for which the “hERG current change (%, negative = inhibition) at 10uM” value is 3.65%.
The same measure for `Cc1ccc(C(C)NC(=O)c2cc(C)oc2C)cc1` (stereo not shown): -14.2%; for `CC(C)COC(=O)n1c(SCC(N)=O)nc2ccccc21`: -10.8%; for `CCN(CC(=O)Nc1c(F)cccc1F)C(=O)c1ccc(N2CCCC2)c([N+](=O)[O-])c1`: -20.1%.
For `COc1ccc(CCNC(=O)Cn2nnc(-c3ccc(N(C)C)cc3)n2)cc1OC`, the “hERG current change (%, negative = inhibition) at 10uM” value amounted to 5.11%.
On to `CS(=O)(=O)c1ccc(Cl)c(C(=O)Nc2ccc3nc(N4CCOCC4)sc3c2)c1`, for which the “hERG current change (%, negative = inhibition) at 10uM” value was determined as 8.12%.
In the case of `COc1cc(SC)ccc1C(=O)N1CCN(Cc2ccc3c(c2)OCO3)CC1`, the “hERG current change (%, negative = inhibition) at 10uM” value is recorded as -34.3%.
In the case of `CC(O)c1nc2ccccc2n1CC(=O)Nc1ccc2c(c1)OCCO2` (stereo not shown) it was -4.28%.
Take `C=C1CCN([C@@H](CC(C)C)C(=O)NCc2ccc(OC)cc2)S(=O)(=O)c2ccccc21`: the “hERG current change (%, negative = inhibition) at 10uM” value was -24.9%.
Consider `CCSC(C)CC1C/C(=N/O)c2c(C)noc2C1` (stereo not shown), for which the “hERG current change (%, negative = inhibition) at 10uM” value was -63.4%.
On to `CCn1nnnc1SCC(=O)c1cccc(OC)c1`, for which the “hERG current change (%, negative = inhibition) at 10uM” value came to 6.45%.
Regarding `CCCCCCCCC(=O)NCCOc1ccc(OC)cc1`, the “hERG current change (%, negative = inhibition) at 10uM” value is reported as 0.912%.
The same measure for `Cc1c(C(=O)O)sc2ncn(C)c(=O)c12`: 10.5%; for `CN(Cc1nccn1C)C(=O)C1CCC(=O)N(CCc2ccc(Cl)cc2)C1` (stereo not shown): -53.8%.
